# Values joined by “and” are separate entries in the source; they are usually repeats but may differ in a detail not shown here. Equal values may be shown once. About 620 (0.23%) of roughly 270,000 compounds were called active. The shares of active, inactive and inconclusive entries below differ from those in the screen. Calls follow the shape of the dose curve; as a rule, active = well fitted inhibition curve with a large enough effect in the polarisation, with a control signal flat (not every such curve was filed as active); inconclusive = small, poorly fitted or top-dose-only effect, or effect the other way, or a change in a side signal; inactive = no such curve, though single readings can be large or run the other way; the % refers to the polarisation. A potency beside an inconclusive call is a rough fit, not a confirmed value. A note “side channel” means that the fit belongs to a control or component signal, not to the main read-out.
# Biological target: Menin (Homo sapiens) (UniProt O00255)
# Chain of UniProt O00255 (O00255 whole entry, looked up): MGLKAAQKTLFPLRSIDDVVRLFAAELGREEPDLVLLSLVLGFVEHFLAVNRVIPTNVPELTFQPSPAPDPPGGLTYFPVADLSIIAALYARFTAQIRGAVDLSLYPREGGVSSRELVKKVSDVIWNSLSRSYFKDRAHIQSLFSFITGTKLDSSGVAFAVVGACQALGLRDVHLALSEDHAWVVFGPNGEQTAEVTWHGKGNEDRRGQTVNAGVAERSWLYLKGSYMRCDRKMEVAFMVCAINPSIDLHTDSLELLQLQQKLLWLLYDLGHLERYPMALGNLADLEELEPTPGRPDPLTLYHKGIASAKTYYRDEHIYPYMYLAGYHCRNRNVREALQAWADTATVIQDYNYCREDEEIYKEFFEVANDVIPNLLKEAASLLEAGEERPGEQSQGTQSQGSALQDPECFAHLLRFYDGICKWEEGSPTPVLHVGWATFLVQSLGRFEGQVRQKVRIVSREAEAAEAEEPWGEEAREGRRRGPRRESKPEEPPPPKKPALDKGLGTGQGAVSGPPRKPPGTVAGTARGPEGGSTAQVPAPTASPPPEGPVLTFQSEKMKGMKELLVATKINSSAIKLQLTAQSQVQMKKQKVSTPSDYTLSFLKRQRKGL
# Assay: qHTS Assay for Inhibitors Targeting the Menin-MLL Interaction in MLL Related Leukemias: Competition With Texas Red Labeled MLL-derived Mutant Peptide; as to FP activity change, negative = inhibition: % of control where 0% means no effect
# Settings: fluorescence polarization; FP activity change, negative = inhibition: at 61.6 µM (top of the series)
# Potency is read from the fitted curve at half-maximal effect; tags tell the direction and shape of the fitted curve or compound fluorescence and quenching.
SMILES,Potency,"FP activity change, negative = inhibition"
CN(C)CCNc1nc2sc3c(c2c(=O)n1Cc1ccccc1)CCCCC3,"inconclusive: 7.94 µM [fluorescent, side channel, partial curve]",
O=C1OC(c2ccc3c(c2)OCO3)=N/C1=C\c1ccc(C(=O)O)cc1,"inconclusive: 25.1 µM [quencher, side channel, single point]",
CC(c1ncncc1F)[C@](O)(Cn1cncn1)c1ccc(F)cc1F (some centres not stated),,inactive: -8.76%
O=C(CN1C(=O)c2cccc3cccc1c23)Nc1ccc(S(=O)(=O)Nc2nccs2)cc1,"inconclusive: 22.4 µM [quencher, side channel, partial curve]",
CSc1nc(Cl)cc(Nc2ccccc2N)n1,"inconclusive: 14.1 µM [quencher, side channel, partial curve]",
Cc1ccc(-c2ccc(=O)n(Cc3c(F)cccc3Cl)n2)cc1,"inconclusive: 7.08 µM [fluorescent, side channel, partial curve]",
OCC1CCCCN1CC(O)COC(c1ccc(F)cc1)c1ccc(F)cc1 (configuration not stated),"inconclusive: 31.6 µM [inhibitor, single point]",
C(=N\Nc1nc2ccccc2s1)/c1cccs1,"inconclusive: 15.8 µM [quencher, side channel, partial curve]",
COc1cc(/C=N/NC(=O)C(Cc2c[nH]c3ccccc23)NC(=O)OCc2ccccc2)cc([N+](=O)[O-])c1O (configuration not stated),"inconclusive: 25.1 µM [quencher, side channel, partial curve]",
COc1ccc(NC2=CC(c3ccc(OC)cc3)N(c3ccc(OC)cc3)C2=O)cc1 (configuration not stated),"inconclusive: 31.6 µM [quencher, side channel, single point]",
CC(=O)c1ccc(NC(=O)CSc2nc(N)c3cc4c(nc3n2)CCCC4)cc1,,inactive: 6.84%
O=C(NCc1cccc(CNC(=O)C(=O)NCc2ccco2)c1)C(=O)NCc1ccco1,"inconclusive: 39.8 µM [inhibitor, single point]",
Cc1ccc(S(=O)(=O)c2ccc(NN)cc2)cc1,"inconclusive: 25.1 µM [quencher, side channel, single point]",
CCOC(=O)c1nn(-c2ccc(Cl)cc2)c(=O)c(C#N)c1C,,inactive: -0.331%
COc1cccc(OC)c1OCCNCC1COc2ccccc2O1 (configuration not stated),"inconclusive: 15.8 µM [fluorescent, side channel, partial curve]",
O=C(COc1ccc(Cl)cc1)Nc1cnn(Cc2c(Cl)cccc2Cl)c1,"inconclusive: 39.8 µM [fluorescent, side channel, single point]",
CCOC(=O)C1CCN(c2cc(C)nc3ccc(OC)cc23)CC1,"inconclusive: 12.6 µM [fluorescent, side channel, partial curve]",
O=C(c1cccc(C(=O)N2CCN(c3ccccc3F)CC2)c1)N1CCN(c2ccccc2F)CC1,"inconclusive: 2.82 µM [inhibitor, full curve]",
COc1ccc(-c2noc(N3CCC(C(=O)Nc4cccc(OC)c4)CC3)n2)cc1,"inconclusive: 15.8 µM [quencher, side channel, partial curve]",

SMILES,Potency,"FP activity change, negative = inhibition"
CCOC(=O)C1(Cc2cccc(Cl)c2)CCCN(C(=O)CCOC)C1 (configuration not stated),"inconclusive: 39.8 µM [fluorescent, side channel, single point]",
CN(C)S(=O)(=O)c1cc(NC(=O)CN2CCN(c3ccccc3)CC2)ccc1Cl,,inactive: 22.6%
N#Cc1nc(-c2ccc(F)cc2)oc1NCc1ccccc1,,inactive: -16.5%
Cc1cc2c(c(SCC(=O)Nc3ccc(C)c(C)c3)n1)C(=O)OC2,"inconclusive: 3.55 µM [fluorescent, side channel, full curve]",
Nc1ccccc1NC(=O)c1ccc(CNC(=O)OCc2cccnc2)cc1,,inactive: 4.35%
O=C(ONc1ccc(N=NC(=O)c2ccccc2O)cc1)c1ccccc1,"inconclusive: 22.4 µM [quencher, side channel, single point]",
O=C(COc1ccc(Cl)cc1)N1CCN(C(=O)c2cccs2)CC1,"inconclusive: 10 µM [quencher, side channel, partial curve]",
N#C/C(=C\c1ccc(O)c([N+](=O)[O-])c1)C(=O)NCc1ccccc1,"inconclusive: 35.5 µM [quencher, side channel, single point]",
CCOC(=O)Cc1cc(-c2ccc(F)cc2)nc2ccc3ccccc3c12,"inconclusive: 39.8 µM [inhibitor, single point]",
Oc1ccc(-c2csc(-c3c[nH]c4ccccc34)n2)c(O)c1,"inconclusive: 5.62 µM [quencher, side channel, partial curve]",
Cc1ccc(NC(=O)c2ccccc2OCC(=O)c2ccccc2)cc1,"inconclusive: 11.2 µM [quencher, side channel, partial curve]",
O=C1NCN(c2ccccc2)C12CCN(CCCC(c1ccc(F)cc1)c1ccc(F)cc1)CC2,"inactive and inconclusive: 6.31 µM [fluorescent, side channel, partial curve] and inconclusive: 8.91 µM [fluorescent, side channel, partial curve]",
Cc1cc(C)c(OCCCNCc2ccccc2)c(Br)c1,"inconclusive: 44.7 µM [fluorescent, side channel, single point]",
Cc1ccc(CN(C(=O)Cn2nnc3ccccc32)C(C(=O)NCc2ccco2)c2cccs2)cc1 (configuration not stated),"inconclusive: 12.6 µM [fluorescent, side channel, partial curve]",
CCN(CC)c1ccc(/C=N/NC(=O)CNC(=O)C2COc3ccccc3O2)c(O)c1 (configuration not stated),"inconclusive: 39.8 µM [quencher, side channel, single point]",
Clc1nc(Cl)nc(N(c2ccccc2)c2ccccc2)n1,,inactive: -12.8%
O=C(c1cccs1)N1CCN(c2nnc(-c3ccccc3)c3ccccc23)CC1,"inconclusive: 10 µM [fluorescent, side channel, partial curve]",
CCCc1cc2c(OC(=O)CC)c(-c3ccc(C(=O)OCC)o3)c(=O)oc2cc1OC,"inconclusive: 20 µM [quencher, side channel, partial curve]",
O=C1C(=O)N(c2ccccc2)C(c2ccccc2[N+](=O)[O-])/C1=C(\O)c1ccccc1 (configuration not stated),"inconclusive: 25.1 µM [quencher, side channel, single point]",

SMILES,Potency,"FP activity change, negative = inhibition"
CSc1nnc2c3ccccc3n(CCc3ccccc3)c2n1,"inconclusive: 31.6 µM [fluorescent, side channel, single point]",
CCOC(=O)c1cnc2c(C)cccc2c1NCc1ccco1,"inconclusive: 22.4 µM [fluorescent, side channel, single point]",
CCn1c(SCC(=O)c2ccccc2)nnc1-c1cc2cc(Br)ccc2o1,"inconclusive: 17.8 µM [fluorescent, side channel, single point]",
CC(=O)Cc1nsc(NC(=O)c2oc(-c3ccccc3Cl)cc2C)n1,"inconclusive: 25.1 µM [quencher, side channel, partial curve]",
Cc1ccccc1C(=O)NC(=S)Nc1sc2c(c1C#N)CCC(C)C2 (configuration not stated),"inconclusive: 20 µM [inhibitor, single point]",
COc1cccc(-c2nc(C(=O)NCC3CCCO3)cc3c2[nH]c2ccccc23)c1 (configuration not stated),"inconclusive: 20 µM [quencher, side channel, single point]",
COC(=O)c1cc(-c2ccc3c(c2)OCO3)nc2ccccc12,"inconclusive: 10 µM [quencher, side channel, partial curve, poor fit]",
CCN(CC)c1ccc(NC(=O)Nc2ccccc2)cc1,"inconclusive: 28.2 µM [quencher, side channel, single point]",
CCc1c(C)nc2ncnn2c1Nc1ccc(C)cc1,"inconclusive: 25.1 µM [inhibitor, single point]",
Oc1ccc(Cl)cc1C1=NNC(c2ccc(Cl)cc2)C1 (configuration not stated),"inconclusive: 12.6 µM [quencher, side channel, partial curve]",
Oc1ccccc1C1=Nc2nc3ccccc3n2C(c2ccccc2)C1 (configuration not stated),,inactive: 9.9%
CC(NC(=S)Nc1ccc(OC(F)F)cc1)c1ccc(F)cc1 (configuration not stated),"inconclusive: 25.1 µM [quencher, side channel, partial curve]",
CCO[C@H]1OC(C(=O)N2CCCCCCC2)=C[C@@H](c2ccc(C(F)(F)F)cc2)[C@@H]1CCCO,"inconclusive: 12.6 µM [fluorescent, side channel, partial curve]",
S=C1SCN(Cc2ccccc2)CN1Cc1ccccc1,"inconclusive: 20 µM [quencher, side channel, single point]",
Cc1cccc(NC(=O)c2ccc(-n3cccn3)c([N+](=O)[O-])c2)c1,"inconclusive: 14.1 µM [quencher, side channel, partial curve]",
COc1ccc(Cc2nnc(Nc3ccccc3)s2)cc1Br,"inconclusive: 28.2 µM [fluorescent, side channel, partial curve]",
Cn1cccc1C(=O)N1CCC2(CC1)CCN(c1ccccc1)CC2,"inconclusive: 8.91 µM [inhibitor, full curve, poor fit]",
COc1ccc(/C=C/c2cc(-c3ccc(C)cc3)o[n+]2C)cc1,"inconclusive: 1 µM [fluorescent, side channel, full curve]",
O=c1c2c3c(sc2n(CCN2CCCCC2)c(=O)n1Cc1ccco1)CCCCC3,"inconclusive: 10 µM [fluorescent, side channel, partial curve]",

# — PubChem BioAssay AID1768 (National Center for Advancing Translational Sciences (NCATS), 2009)
